The campaign covered roughly 410,000 compounds. About 6,400 (1.6%) were called active. Inconclusive results, whose numbers are uncertain, are shown with a selection of clear calls. Calls come from the whole dose curve; as a rule, active = well fitted inhibition curve with a large enough effect; inconclusive = small, poorly fitted or top-dose-only effect; inactive = no such curve, though single readings can be large or run the other way. No potency is given beside an inconclusive call; the fits are too rough.
The compounds below were run against Glucagon-like peptide 1 receptor (Homo sapiens) (UniProt P43220) (assay: qHTS of GLP-1 Receptor Inverse Agonists (Inhibition Mode)). Settings: HEK293 GLP-1R CRE-luciferase, luminescence, 24 h, GLP-1R form is constitutively active; activity change, negative = inhibition: at 38.3 µM (top of the series) unless noted.
UniProt P43220, sequence (P43220 whole entry, looked up): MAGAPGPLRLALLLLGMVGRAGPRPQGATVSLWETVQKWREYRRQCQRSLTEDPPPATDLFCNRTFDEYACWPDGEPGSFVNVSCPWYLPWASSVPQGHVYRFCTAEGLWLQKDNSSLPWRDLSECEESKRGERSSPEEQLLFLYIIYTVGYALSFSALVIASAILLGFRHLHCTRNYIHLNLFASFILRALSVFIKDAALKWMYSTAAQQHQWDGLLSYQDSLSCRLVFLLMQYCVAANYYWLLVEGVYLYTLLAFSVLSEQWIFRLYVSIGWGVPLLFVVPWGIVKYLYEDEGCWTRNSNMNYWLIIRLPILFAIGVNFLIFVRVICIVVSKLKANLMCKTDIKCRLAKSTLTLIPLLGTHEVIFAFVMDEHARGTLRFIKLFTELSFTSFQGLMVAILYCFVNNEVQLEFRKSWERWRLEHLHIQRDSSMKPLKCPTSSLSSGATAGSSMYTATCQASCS
Procedure, shortened: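 Constitutively active GLP-1R drives a cAMP-responsive luciferase in stably transfected HEK293 cells; test compounds are added after overnight (12 h) attachment and left 24 hr, and signal loss in luminescence marks inhibition.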
In the case of Fc1ccc2c(c1)/C(=N/Nc1ccccn1)CCS2, the Potency is reported as inconclusive [inhibitor, partial curve, poor fit].
With CCOC(=O)c1ccccc1NS(=O)(=O)c1c(-c2ccc(C)cc2)csc1C(=O)OC the Potency was inconclusive [inhibitor, partial curve, poor fit].
For CN(CCC#N)c1ccc(/C=C(\C#N)c2ccccn2)cc1, the Potency was inconclusive [inhibitor, partial curve, poor fit].
With O=C(CSc1cccc[n+]1[O-])C12CC3CC(CC(C3)C1)C2 the Potency was inconclusive [inhibitor, single point].
O=C(Nc1ccc(Cl)c(Cl)c1)Nc1ccc(Br)cc1F was tested, and the Potency was inconclusive [inhibitor, partial curve, poor fit].
For CCc1ccc(-c2cc(C(F)(F)F)n3nc(C(=O)Nc4c(C)nn(Cc5ccccc5C)c4C)cc3n2)s1, the Potency was inconclusive [inhibitor, partial curve, poor fit].
For COc1ccc(C(=O)Nc2cccc(C)n2)cc1S(=O)(=O)N1CCCc2ccccc21, the Potency was inconclusive [inhibitor, single point].
For Oc1c(Cl)cc(Cl)cc1CNc1nc2ccccc2[nH]1, the Potency was inconclusive [inhibitor, single point].
In the case of COc1ccccc1NC(=O)CN1CCSc2ccccc21, the Potency is reported as inconclusive [inhibitor, partial curve, poor fit].
In the case of CCOC(=O)C1=C(C)C2C3C(=O)N(c4cc(C)ccc4C)C(=O)C3C1(C)C1C(=O)N(c3cc(C)ccc3C)C(=O)C21 (configuration not stated), the Potency is reported as inconclusive [inhibitor, partial curve, poor fit].
For Cc1ccc(S(=O)(=O)c2cn(Cc3ccccc3)c3cc(N4CCCC4)c(F)cc3c2=O)cc1C, the “activity change, negative = inhibition” value was inactive: 5.65%.
In the case of O=C1C=C(N(CCO)Cc2ccccc2)c2ccccc2C1=O, the activity change, negative = inhibition is reported as inactive: 18.9% [at 0.307 µM].
In the case of CCN1CCCC1CNc1ncnc2c1[nH]c1ccc(F)cc12 (configuration not stated), the Potency is reported as inconclusive [inhibitor, partial curve, poor fit].
In the case of O=C(Nc1ccccc1)c1nc[nH]c1C(=O)N1CCN(c2ccccc2)CC1, the “activity change, negative = inhibition” value is reported as inactive: 1.38%.
CCC[C@H]1CN(c2ccccc2)C(=O)[C@@H]1CC(=O)Nc1ccccc1 was tested, and the Potency was inconclusive [inhibitor, single point].
For CCN(C(=O)Cn1ncc2c1-c1cc(C)ccc1OC2)c1cc(Cl)ccc1OC, the Potency was inconclusive [inhibitor, single point].
In the case of O=[N+]([O-])c1ccc(COc2ccc(-c3[nH]ncc3-c3ccccc3)c(O)c2)cc1, the Potency is reported as inconclusive [inhibitor, partial curve, poor fit].
Cc1ccc(CNC(=O)C23CN(Cc4ccccc4)CC2C(c2cccc([N+](=O)[O-])c2)=NO3)cc1 (configuration not stated) was tested, and the Potency was inconclusive [inhibitor, partial curve, poor fit].
Cn1cc([C@@H]2C[C@H]3CN(Cc4cccc(Cl)c4)C(=O)[C@]34CCCN24)c2ccccc21 was tested, and the Potency was inconclusive [inhibitor, partial curve, poor fit].
In the case of COC(=O)c1ccc(CN(c2ccccc2OC)S(=O)(=O)c2cccs2)o1, the Potency is reported as inconclusive [inhibitor, single point].
CC(C)c1ccccc1OCC(=O)NC1CCCc2ccccc21 (configuration not stated) was tested, and the Potency was inconclusive [inhibitor, partial curve, poor fit].
With c1ccc2c(N3CCCCCC3)nc(-c3ccncc3)nc2c1 the Potency was inconclusive [inhibitor, single point].
For Cc1onc(-c2ccccc2)c1C(=O)OCC(=O)Nc1ccc(Cl)cc1, the Potency was active: 11.2 µM.
With CC(C)(CC(=O)OCC(=O)Nc1ccc(F)c(Cl)c1)CC1=NS(=O)(=O)c2ccccc2N1 the Potency was inconclusive [inhibitor, single point].
COc1cc(NC(=O)c2cc3c(=O)oc4ccc(C)cc4c3s2)cc(OC)c1OC was tested, and the “activity change, negative = inhibition” value was inactive: 2.84%.
In the case of O=C(Nc1ccc(Br)cc1Cl)c1ccc(OCC2CCCO2)cc1 (configuration not stated), the Potency is reported as inconclusive [inhibitor, single point].
In the case of COc1cccc(CN(C)C(=O)c2cc(S(=O)(=O)N3CCN(c4ccccc4)CC3)ccc2Cl)c1, the Potency is reported as inconclusive [inhibitor, partial curve, poor fit].
With COc1cccc(-c2csc(NNC(=O)c3cccs3)n2)c1 the Potency was inconclusive [inhibitor, single point].
With CCCCn1c(COc2cccc(OC)c2)nc2ccccc21 the Potency was inconclusive [inhibitor, single point].
Cc1ccc(C)c2[nH]c(=O)c(C(c3nnnn3C(C)(C)C)N3CC=C(c4ccc(F)cc4)CC3)cc12 (configuration not stated) was tested, and the Potency was inconclusive [inhibitor, single point].
With Cc1ccc(S(=O)(=O)NN2C(=O)/C(=C/c3ccccn3)SC2=S)cc1 the Potency was inconclusive [inhibitor, single point].
For COc1ccc(CCN2CC(C(=O)NCCc3ccc(C)cc3)CC2=O)cc1OC (configuration not stated), the Potency was inconclusive [inhibitor, partial curve, poor fit].
For Cc1cccc(N(Cc2ccccc2)C(=O)c2cc(S(=O)(=O)N3CCOCC3)ccc2F)c1, the Potency was inconclusive [inhibitor, single point].
With COc1ccc(-c2nnc(COc3ccc(Br)cc3C)o2)cc1 the Potency was inconclusive [inhibitor, single point].
In the case of Cc1ccc(NC(=S)NCCN(C2CCCCC2)C2CCCC2)cc1, the Potency is reported as inconclusive [inhibitor, single point].
CC[C@]12c3[nH]c4ccc(Cl)cc4c3CCN1C(=O)[C@@H](CC(=O)NCCC1=CCCCC1)C[C@@H]2C(=O)N1CCN(C(=O)c2ccco2)CC1 was tested, and the Potency was inconclusive [inhibitor, single point].
Cc1ccccc1N1CCN(C2CCCN(C(=O)c3ccsc3)C2)CC1 (configuration not stated) was tested, and the Potency was inconclusive [inhibitor, partial curve, poor fit].

Reference: PubChem BioAssay AID624417 (National Center for Advancing Translational Sciences (NCATS), 2012)
% is set by controls: 0 for no effect and ±100 for the full control effect; potency is the fitted concentration of half-maximal effect; tags give direction and shape of the fitted curve.
Note: nearly all actives have a fitted effect of over 55% in size.
